Cell count data for 24 compounds are collected here from the supplement of paper PMC4604168 (melanoma cell lines).

This is one part of the list. Many values rest on one well or one pass, so single values are uncertain.

Among the test systems are WM115; WM1716; WM1745; WM3526; WM3619; WM451Lu.
Common to all, as to test: cell count relative to DMSO control; melanoma cells; higher = more viable cells
Conditions in all cases: library dose: low library concentration; 72 h
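Also: cell number obtained by counting DAPI-stained nuclei in high-throughput microscope images with image analysis software, screen run in 1,536-well plates.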

`CC1(C)CCC(c2ccc(Cl)cc2)=C(CN2CCN(c3ccc(C(=O)NS(=O)(=O)c4ccc(N[C@H](CCN5CCOCC5)CSc5ccccc5)c(S(=O)(=O)C(F)(F)F)c4)cc3)CC2)C1` + Cc1cc(N2CCOCC2)cc2[nH]c(-c3c(NC[C@@H](O)c4cccc(Cl)c4)cc[nH]c3=O)nc12 [BMS536924] (first compound 0.4 µM, partner dose 0.2 µM): the cell count in the assay with WM115 stood at 96.4%; in the assay on WM1716 it was 86.1%; with WM1745 it was 9.47%; in the assay on WM3526, 79.3%; in the assay with WM3619, 77%; with WM451Lu it was 90.2%.

For `Cc1ccc(Nc2nccc(N(C)c3ccc4c(C)n(C)nc4c3)n2)cc1S(N)(=O)=O` [Pazopanib] + CC1(C)NC(=O)N(c2ccc([N+](=O)[O-])c(C(F)(F)F)c2)C1=O [nilutamide] (first compound 0.4 µM, partner dose 1 µM), the cell count in the assay on WM115 turned out to be 112%; in the assay on WM1716, 103%; with WM1745, 84.6%; with WM3526, 106%; in the assay with WM3619, 101%; in the assay with WM451Lu, 101%.

As to `O=C(/C=C/c1cccnc1)NCCCCC1CCN(C(=O)c2ccccc2)CC1` + C[C@@H](Oc1cc(-c2cnn(C3CCNCC3)c2)cnc1N)c1c(Cl)ccc(F)c1Cl [Crizotinib] (first compound 0.01 µM, partner dose 0.2 µM), the cell count in the assay with WM115 worked out at 92.3%; in the assay with WM1716, 111%; with WM1745, 88.1%; in the assay on WM3526 it was 116%; in the assay with WM3619, 87.7%; in the assay with WM451Lu, 96.5%.

With `Cc1ccc(Nc2nccc(N(C)c3ccc4c(C)n(C)nc4c3)n2)cc1S(N)(=O)=O` [Pazopanib] + CCN(CC)CCCCNc1ncc2cc(-c3cc(OC)cc(OC)c3)c(NC(=O)NC(C)(C)C)nc2n1 [PD173074] (first compound 0.4 µM, partner dose 0.1 µM), the cell count in the assay with WM115 came out at 100%; with WM1716, 93.4%; in the assay with WM1745, 97.3%; with WM3526, 93.6%; with WM3619, 84.8%; in the assay with WM451Lu it was 101%.

Turning to `CC1(C)CCC(c2ccc(Cl)cc2)=C(CN2CCN(c3ccc(C(=O)NS(=O)(=O)c4ccc(N[C@H](CCN5CCOCC5)CSc5ccccc5)c(S(=O)(=O)C(F)(F)F)c4)cc3)CC2)C1` + CN1CCN(c2ccc3nc(-c4c(N)c5c(F)cccc5[nH]c4=O)[nH]c3c2)CC1 [Dovitinib] (first compound 0.4 µM, partner dose 0.1 µM), the cell count in the assay on WM115 came out at 81.6%; in the assay with WM1716 it was 80.8%; with WM1745, 8.97%; with WM3526, 81.2%; with WM3619, 88.1%; with WM451Lu it was 87.8%.

On to `O=C(/C=C/c1cccnc1)NCCCCC1CCN(C(=O)c2ccccc2)CC1` + Oc1nc(-c2ccc(C(F)(F)F)cc2)nc2c1CSCC2 [XAV939] (first compound 0.01 µM, partner dose 2 µM), for which the cell count in the assay with WM115 was determined as 81.4%; with WM1716 it was 67.4%; in the assay on WM1745 it was 87.2%; in the assay on WM3526, 89.8%; with WM3619 it was 111%; in the assay on WM451Lu, 105%.

Consider `Cc1ccc(Nc2nccc(N(C)c3ccc4c(C)n(C)nc4c3)n2)cc1S(N)(=O)=O` [Pazopanib] + CN(c1ncccc1CNc1nc(Nc2ccc3c(c2)CC(=O)N3)ncc1C(F)(F)F)S(C)(=O)=O [PF562271] (first compound 0.4 µM, partner dose 0.08 µM), for which the cell count in the assay with WM115 came out at 71.6%; in the assay on WM1716, 74.5%; in the assay with WM1745 it was 86.1%; in the assay with WM3526 it was 109%; in the assay on WM3619, 89.3%; with WM451Lu, 82.5%.

Consider `CC1(C)CCC(c2ccc(Cl)cc2)=C(CN2CCN(c3ccc(C(=O)NS(=O)(=O)c4ccc(N[C@H](CCN5CCOCC5)CSc5ccccc5)c(S(=O)(=O)C(F)(F)F)c4)cc3)CC2)C1` + CCCS(=O)(=O)Nc1ccc(F)c(C(=O)c2c[nH]c3ncc(Cl)cc23)c1F [PLX4720] (first compound 0.4 µM, partner dose 0.08 µM), for which the cell count was determined as 73.4% with WM115; 64.2% in the assay on WM1716; 7.68% in the assay on WM1745; 64.7% with WM3526; 61.7% in the assay with WM3619; 80.6% with WM451Lu.

For `CC1(C)CCC(c2ccc(Cl)cc2)=C(CN2CCN(c3ccc(C(=O)NS(=O)(=O)c4ccc(N[C@H](CCN5CCOCC5)CSc5ccccc5)c(S(=O)(=O)C(F)(F)F)c4)cc3)CC2)C1` + Cc1ccc(Nc2nccc(N(C)c3ccc4c(C)n(C)nc4c3)n2)cc1S(N)(=O)=O [Pazopanib] (first compound 0.4 µM, partner dose 0.4 µM), the cell count in the assay on WM115 is 79.4%; in the assay on WM1716 it was 61.8%; in the assay on WM1745, 14.5%; in the assay with WM3526 it was 82.5%; in the assay on WM3619 it was 90.5%; in the assay with WM451Lu it was 82.7%.

As to `O=C(/C=C/c1cccnc1)NCCCCC1CCN(C(=O)c2ccccc2)CC1` + CN(c1ncccc1CNc1nc(Nc2ccc3c(c2)CC(=O)N3)ncc1C(F)(F)F)S(C)(=O)=O [PF562271] (first compound 0.01 µM, partner dose 0.08 µM), the cell count is 82.3% in the assay on WM115; 76.4% with WM1716; 90.1% in the assay with WM1745; 87.3% in the assay on WM3526; 68.9% with WM3619; 86% with WM451Lu.

On to `O=C(/C=C/c1cccnc1)NCCCCC1CCN(C(=O)c2ccccc2)CC1` + CO[C@@H]1[C@H](N(C)C(=O)c2ccccc2)C[C@H]2O[C@]1(C)n1c3ccccc3c3c4c(c5c6ccccc6n2c5c31)C(=O)NC4 [Midostaurin] (first compound 0.01 µM, partner dose 0.08 µM), for which the cell count is 69% in the assay with WM115; 54.9% with WM1716; 80.5% in the assay on WM1745; 91% in the assay with WM3526; 62.5% with WM3619; 103% in the assay on WM451Lu.

For the compound `O=C(/C=C/c1cccnc1)NCCCCC1CCN(C(=O)c2ccccc2)CC1` + CS(=O)(=O)c1ccc(C(=O)Nc2ccc(Cl)c(-c3ccccn3)c2)c(Cl)c1 [vismodegib] (first compound 0.01 µM, partner dose 1 µM), the cell count in the assay on WM115 amounted to 97.1%; in the assay with WM1716, 94.5%; with WM1745 it was 98.4%; in the assay on WM3526, 100%; in the assay on WM3619 it was 76.3%; with WM451Lu, 89.9%.

For `Cc1ccc(Nc2nccc(N(C)c3ccc4c(C)n(C)nc4c3)n2)cc1S(N)(=O)=O` [Pazopanib] + CCCS(=O)(=O)Nc1ccc(F)c(C(=O)c2c[nH]c3ncc(Cl)cc23)c1F [PLX4720] (first compound 0.4 µM, partner dose 0.08 µM), the cell count amounted to 103% in the assay with WM115; 101% in the assay on WM1716; 84.1% with WM1745; 108% with WM3526; 116% with WM3619; 111% in the assay with WM451Lu.

Regarding `Cc1ccc(Nc2nccc(N(C)c3ccc4c(C)n(C)nc4c3)n2)cc1S(N)(=O)=O` [Pazopanib] + CN1CCN(c2ccc3nc(-c4c(N)c5c(F)cccc5[nH]c4=O)[nH]c3c2)CC1 [Dovitinib] (first compound 0.4 µM, partner dose 0.1 µM), the cell count in the assay on WM115 is 88.7%; with WM1716, 100%; with WM1745 it was 86.8%; in the assay with WM3526 it was 89.8%; with WM3619, 83.4%; in the assay with WM451Lu it was 97%.

As for `Cc1ccc(Nc2nccc(N(C)c3ccc4c(C)n(C)nc4c3)n2)cc1S(N)(=O)=O` [Pazopanib] + Oc1cc(-c2nc(-c3ccccc3)[nH]c2-c2ccncc2)ccc1Cl [L779450] (first compound 0.4 µM, partner dose 0.2 µM), the cell count in the assay with WM115 was found to be 76.1%; in the assay on WM1716, 99.5%; with WM1745, 77.4%; with WM3526, 57.8%; in the assay on WM3619 it was 109%; with WM451Lu, 104%.

In the case of `O=C(/C=C/c1cccnc1)NCCCCC1CCN(C(=O)c2ccccc2)CC1` + Nc1ncn([C@H]2C[C@H](O)[C@@H](CO)O2)c(=O)n1 [decitabine] (first compound 0.01 µM, partner dose 0.1 µM), the cell count in the assay on WM115 stood at 84.3%; with WM1716, 79%; in the assay on WM1745, 102%; in the assay on WM3526 it was 114%; in the assay on WM3619, 80.2%; in the assay on WM451Lu, 92.2%.

As to `O=C(/C=C/c1cccnc1)NCCCCC1CCN(C(=O)c2ccccc2)CC1` + O=C(Nc1cccc(Cl)c1)Nc1ncc(CCNc2ncnc3ccsc23)s1 [SNS314] (first compound 0.01 µM, partner dose 0.0008 µM), the cell count was 73% in the assay on WM115; 94.4% with WM1716; 106% in the assay on WM1745; 94.8% with WM3526; 92% in the assay with WM3619; 121% with WM451Lu.

With `O=C(/C=C/c1cccnc1)NCCCCC1CCN(C(=O)c2ccccc2)CC1` + CC(C)(C)c1cnc(CSc2cnc(NC(=O)C3CCNCC3)s2)o1 [SNS-032] (first compound 0.01 µM, partner dose 0.01 µM), the cell count in the assay on WM115 amounted to 85.1%; with WM1716 it was 87.3%; in the assay with WM1745 it was 90.9%; with WM3526, 122%; in the assay with WM3619, 53.9%; in the assay on WM451Lu, 104%.

Turning to `Cc1ccc(Nc2nccc(N(C)c3ccc4c(C)n(C)nc4c3)n2)cc1S(N)(=O)=O` [Pazopanib] + O=C(O)[C@@H]1[O][Sb](=[O])([O][Sb]2(=[O])[O][C@H]([C@H](O)CO)[C@H](O)[C@H](C(=O)O)[O]2)[O][C@H]([C@H](O)CO)[C@@H]1O [stibogluconate] (first compound 0.4 µM, partner dose 2 µM), the cell count in the assay with WM115 was found to be 99%; in the assay on WM1716, 73.2%; in the assay on WM1745, 100%; with WM3526, 94.2%; in the assay with WM3619 it was 81%; in the assay with WM451Lu, 95.8%.

For the compound `Cc1ccc(Nc2nccc(N(C)c3ccc4c(C)n(C)nc4c3)n2)cc1S(N)(=O)=O` [Pazopanib] + Nc1cccc2c1CN(C1CCC(=O)NC1=O)C2=O [lenalidomide] (first compound 0.4 µM, partner dose 1 µM), the cell count with WM115 worked out at 94.1%; in the assay with WM1716, 82.1%; with WM1745, 84.6%; in the assay with WM3526, 88.6%; with WM3619, 110%; with WM451Lu it was 104%.

As for `O=C(/C=C/c1cccnc1)NCCCCC1CCN(C(=O)c2ccccc2)CC1` + COc1cc(Nc2ncc(F)c(Nc3ccc4c(n3)NC(=O)C(C)(C)O4)n2)cc(OC)c1OC [Tamatinib] (first compound 0.01 µM, partner dose 0.4 µM), the cell count is 70.6% in the assay on WM115; 74.4% in the assay with WM1716; 76.8% in the assay on WM1745; 81.5% in the assay with WM3526; 92% in the assay on WM3619; 83.3% with WM451Lu.

As for `O=C(/C=C/c1cccnc1)NCCCCC1CCN(C(=O)c2ccccc2)CC1` + Cc1ccc(Nc2nccc(N(C)c3ccc4c(C)n(C)nc4c3)n2)cc1S(N)(=O)=O [Pazopanib] (first compound 0.01 µM, partner dose 0.4 µM), the cell count stood at 101% in the assay with WM115; 94.2% in the assay with WM1716; 81.7% in the assay on WM1745; 111% in the assay with WM3526; 75.6% in the assay with WM3619; 116% with WM451Lu.

`CC1(C)CCC(c2ccc(Cl)cc2)=C(CN2CCN(c3ccc(C(=O)NS(=O)(=O)c4ccc(N[C@H](CCN5CCOCC5)CSc5ccccc5)c(S(=O)(=O)C(F)(F)F)c4)cc3)CC2)C1` + O=C(Nc1ccccc1)c1cc([N+](=O)[O-])ccc1Cl [GW9662] (first compound 0.4 µM, partner dose 2 µM): the cell count with WM115 turned out to be 84.8%; in the assay with WM1716, 80.6%; in the assay with WM1745, 26.2%; with WM3526 it was 84.5%; in the assay on WM3619, 79.5%; in the assay on WM451Lu it was 85.3%.

Consider `CC1(C)CCC(c2ccc(Cl)cc2)=C(CN2CCN(c3ccc(C(=O)NS(=O)(=O)c4ccc(N[C@H](CCN5CCOCC5)CSc5ccccc5)c(S(=O)(=O)C(F)(F)F)c4)cc3)CC2)C1` + OCc1c[nH]c2ccccc12 [Indole-3-carbinol] (first compound 0.4 µM, partner dose 0.8 µM), for which the cell count was 100% in the assay with WM115; 91.8% in the assay with WM1716; 11.1% in the assay on WM1745; 89.6% in the assay with WM3526; 96.8% in the assay with WM3619; 96.5% in the assay on WM451Lu.
